Measured values published in a collection of fitness landscapes (doi:10.1126/science.1257360).
Some of the results follow.

B1: PhoQ; a variant is named by its letters at X, in order, P23837 (parent)
chain: MKKLLRLFFPLSLRVRFLLATAAVVLVLSLAYGMVALIGYSVSFDKTTFRLLRGESNLFYTLAKWENNKLHVELPENIDKQSPTMTLIYDENGQLLWAQRDVPWLMKMIQPDWLKSNGFHEIEADVNDTSLLLSGDHSIQQQLQEVREDDDDAEMTHSVAVNVYPATSRMPKLTIVVVDTIPVELKSSYMVWSWFIYVLSANLLLVIPLLWVAAWWSLRPIEALAKEVRELEEHNRELLNPATTRELTSLVRNLNRLLKSERERYDKYRTTLTDLTHSLKTPLXXLQXXLRSLRSEKMSVSDAEPVMLEQISRISQQIGYYLHRASMRGGTLLSRELHPVAPLLDNLTSALNKVYQRKGVNISLDISPEISFVGEQNDFVEVMGNVLDNACKYCLEFVEISARQTDEHLYIVVEDDGPGIPLSKREVIFDRGQRVDTLRPGQGVGLAVAREITEQYEGKIVAGESMLGGARMEVIFGRQHSAPKDE

Variants of: B1
Assay: enrichment ratio after two sorts for PhoP signalling (ratio (wild type AVST 3.29)); higher = more functional
Details: with PhoP (E. coli)

Row | Variant | enrichment ratio
1 | TKGE | ≤ 0.25
2 | SELA | 12.4
3 | EGAV | ≤ 0.25
4 | SQMD | 17.4
5 | FTMQ | 3.38
6 | WYTA | ≤ 0.25
7 | HFFD | ≤ 0.25
8 | YMPL | ≤ 0.25
9 | HEPR | ≤ 0.25
10 | YWSG | ≤ 0.25
11 | QCVR | ≤ 0.25
12 | IAMY | ≤ 0.25
13 | IIQY | ≤ 0.25
14 | VHTF | ≤ 0.25
15 | ILRY | ≤ 0.25
16 | ELKT | ≤ 0.25
17 | ILLG | ≤ 0.25
18 | WCSC | ≤ 0.25
19 | TQVN | 1.93
20 | NLRQ | ≤ 0.25
21 | SGDM | ≤ 0.25
22 | LWQC | ≤ 0.25
23 | VRMF | ≤ 0.25
24 | PIMN | ≤ 0.25
25 | LENH | ≤ 0.25

Row | Variant | enrichment ratio
26 | NVAY | ≤ 0.25
27 | NDGS | ≤ 0.25
28 | RIYH | ≤ 0.25
29 | LWIR | ≤ 0.25
30 | GMTV | 0.937
31 | PNWD | ≤ 0.25
32 | QHFM | 7.08
33 | NNAK | ≤ 0.25
34 | AFPY | ≤ 0.25
35 | KDAR | ≤ 0.25
36 | MTPE | ≤ 0.25
37 | SIFC | ≤ 0.25
38 | AVDP | ≤ 0.25
39 | TNNK | ≤ 0.25
40 | WGWS | ≤ 0.25
41 | FTVY | ≤ 0.25
42 | PTQF | ≤ 0.25
43 | GFWG | ≤ 0.25
44 | ERNY | ≤ 0.25
45 | ECSA | ≤ 0.25
46 | PYQF | ≤ 0.25
47 | DSDK | ≤ 0.25
48 | QDPD | ≤ 0.25
49 | VKMS | ≤ 0.25
50 | MLCN | ≤ 0.25

Row | Variant | enrichment ratio
51 | VEAT | 1.85
52 | QPCK | ≤ 0.25
53 | IEWG | ≤ 0.25
54 | KHCG | ≤ 0.25
55 | YDTI | ≤ 0.25
56 | GYVA | ≤ 0.25
57 | LMDR | ≤ 0.25
58 | AKNH | ≤ 0.25
59 | LMFG | ≤ 0.25
60 | NFRR | ≤ 0.25
61 | DDRH | ≤ 0.25
62 | LMRH | ≤ 0.25
63 | MFAL | ≤ 0.25
64 | RFGY | ≤ 0.25
65 | IMCD | ≤ 0.25
66 | TLSL | 15.8
67 | TTSF | 13.7
68 | SVWE | ≤ 0.25
69 | RFDV | ≤ 0.25
70 | EPFK | ≤ 0.25
71 | SYHM | ≤ 0.25
72 | HKVS | ≤ 0.25
73 | NVIV | ≤ 0.25
74 | MYMC | ≤ 0.25
75 | HRCW | ≤ 0.25

Row | Variant | enrichment ratio
76 | KPRA | ≤ 0.25
77 | QPCC | ≤ 0.25
78 | NLPQ | ≤ 0.25
79 | LHYN | ≤ 0.25
80 | YFKF | ≤ 0.25
81 | KDAC | ≤ 0.25
82 | RMHH | ≤ 0.25
83 | TLSP | ≤ 0.25
84 | FMLC | ≤ 0.25
85 | DQMV | ≤ 0.25
86 | LQTG | 1.22
87 | SWST | ≤ 0.25
88 | YMMP | ≤ 0.25
89 | SWET | ≤ 0.25
90 | AFIC | ≤ 0.25
91 | NHFR | ≤ 0.25
92 | KARH | ≤ 0.25
93 | NLTI | ≤ 0.25
94 | HHLK | ≤ 0.25
95 | DCVN | ≤ 0.25
96 | VRWL | ≤ 0.25
97 | PPHG | ≤ 0.25
98 | CMLI | ≤ 0.25
99 | MRER | ≤ 0.25
100 | FHEI | ≤ 0.25

Row | Variant | enrichment ratio
101 | PDVA | ≤ 0.25
102 | FVAM | ≤ 0.25
103 | QMHW | ≤ 0.25
104 | PAFI | ≤ 0.25
105 | IFIR | ≤ 0.25
106 | LNSW | ≤ 0.25
107 | QHYS | ≤ 0.25
108 | KTCL | ≤ 0.25
109 | NIPM | ≤ 0.25
110 | WHSK | ≤ 0.25
111 | HLKV | ≤ 0.25
112 | NHFM | ≤ 0.25
113 | RADY | ≤ 0.25
114 | QPAR | ≤ 0.25
115 | VTKF | ≤ 0.25
116 | YNKF | ≤ 0.25
117 | FCPH | ≤ 0.25
118 | APDD | ≤ 0.25
119 | PDWA | ≤ 0.25
120 | AHLW | ≤ 0.25
121 | VEKM | ≤ 0.25
122 | YVTG | ≤ 0.25
123 | YWRQ | ≤ 0.25
124 | GMFN | ≤ 0.25
125 | IPGH | ≤ 0.25

Row | Variant | enrichment ratio
126 | WCYW | ≤ 0.25
127 | WWIR | ≤ 0.25
128 | KGSK | ≤ 0.25
129 | DSPD | ≤ 0.25
130 | WQRE | ≤ 0.25
131 | PYWP | ≤ 0.25
132 | YTDY | ≤ 0.25
133 | DGVE | ≤ 0.25
134 | IRLW | ≤ 0.25
135 | MCTA | ≤ 0.25
136 | ARCD | ≤ 0.25
137 | PAFD | ≤ 0.25
138 | PMLA | ≤ 0.25
139 | PTRG | ≤ 0.25
140 | YQIR | ≤ 0.25
141 | EHQG | ≤ 0.25
142 | VPMY | ≤ 0.25
143 | VELH | 0.876
144 | PYIY | ≤ 0.25
145 | RHPV | ≤ 0.25
146 | IFCF | ≤ 0.25
147 | HSQM | 0.399
148 | QTDQ | ≤ 0.25
149 | ALEL | ≤ 0.25
150 | SSPK | ≤ 0.25

Row | Variant | enrichment ratio
151 | MRCN | ≤ 0.25
152 | HCNW | ≤ 0.25
153 | QNAA | ≤ 0.25
154 | VMSA | ≤ 0.25
155 | YKYQ | ≤ 0.25
156 | KDPQ | ≤ 0.25
157 | DACI | ≤ 0.25
158 | FNWK | ≤ 0.25
159 | AEGG | ≤ 0.25
160 | LRKL | ≤ 0.25
161 | ISID | ≤ 0.25
162 | QFQN | ≤ 0.25
163 | WDKC | ≤ 0.25
164 | HGYW | ≤ 0.25
165 | RVTV | ≤ 0.25
166 | VRHW | ≤ 0.25
167 | AWRY | ≤ 0.25
168 | WIRM | ≤ 0.25
169 | EIRR | ≤ 0.25
170 | PFVF | ≤ 0.25
171 | THTR | ≤ 0.25
172 | CHIY | ≤ 0.25
173 | FTHV | ≤ 0.25
174 | RWMN | ≤ 0.25
175 | WVGP | ≤ 0.25

Row | Variant | enrichment ratio
176 | LRLS | ≤ 0.25
177 | AGIY | 7.17
178 | MCNG | ≤ 0.25
179 | PYVW | ≤ 0.25
180 | MATS | ≤ 0.25
181 | FSIQ | ≤ 0.25
182 | EWVS | ≤ 0.25
183 | RLQN | ≤ 0.25
184 | NVFD | ≤ 0.25
185 | DQKA | ≤ 0.25
186 | EGKG | ≤ 0.25
187 | AVAI | 4.58
188 | MVAS | 4.25
189 | YGMR | ≤ 0.25
190 | FRWK | ≤ 0.25
191 | MGKW | ≤ 0.25
192 | HFES | ≤ 0.25
193 | RPCF | ≤ 0.25
194 | KYSL | ≤ 0.25
195 | QPGM | ≤ 0.25
